In paper PMC4391933:
These are yes or no findings as the source states them, for the method shown. In cells and extracts the contact can be indirect. Some entries that bind do so weakly or less than the wild type. For some assays here: Tags and fused reporters may be left off the sequences shown.

Amino acid sequences for entries named in this document (tags omitted). A change or cut given only in a name is not applied to a line headed by its entry. Chains listed by the source or under a name are the forms on record and can include a tag or linker. Residues count along the entry.
UniProt P03203: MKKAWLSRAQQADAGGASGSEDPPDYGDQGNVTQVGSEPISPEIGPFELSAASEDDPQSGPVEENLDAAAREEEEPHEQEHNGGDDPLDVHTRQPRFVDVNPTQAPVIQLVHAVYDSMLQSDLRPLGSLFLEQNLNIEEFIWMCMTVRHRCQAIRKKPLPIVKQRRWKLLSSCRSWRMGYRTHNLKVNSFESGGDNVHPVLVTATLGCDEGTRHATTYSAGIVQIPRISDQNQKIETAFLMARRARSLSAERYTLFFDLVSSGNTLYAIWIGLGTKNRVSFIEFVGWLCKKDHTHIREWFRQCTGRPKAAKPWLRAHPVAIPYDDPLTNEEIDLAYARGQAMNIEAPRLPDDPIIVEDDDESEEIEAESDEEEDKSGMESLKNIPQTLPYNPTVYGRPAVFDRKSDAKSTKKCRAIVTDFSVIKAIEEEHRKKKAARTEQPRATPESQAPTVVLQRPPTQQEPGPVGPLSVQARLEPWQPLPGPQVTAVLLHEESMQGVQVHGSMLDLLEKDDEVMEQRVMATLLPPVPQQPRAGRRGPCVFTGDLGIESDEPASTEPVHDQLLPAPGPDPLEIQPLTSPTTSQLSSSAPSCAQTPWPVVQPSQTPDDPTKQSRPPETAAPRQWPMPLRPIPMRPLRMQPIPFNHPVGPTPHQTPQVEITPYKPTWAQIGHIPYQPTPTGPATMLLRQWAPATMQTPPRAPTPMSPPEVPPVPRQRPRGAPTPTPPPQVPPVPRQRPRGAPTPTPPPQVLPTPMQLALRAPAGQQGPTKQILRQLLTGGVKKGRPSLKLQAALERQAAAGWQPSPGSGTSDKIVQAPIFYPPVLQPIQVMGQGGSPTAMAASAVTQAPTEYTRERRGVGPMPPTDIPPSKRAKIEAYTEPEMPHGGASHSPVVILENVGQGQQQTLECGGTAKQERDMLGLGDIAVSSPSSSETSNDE
Flag-tagged EBNA3B 394–938: residues 394-938 of P03203
UniProt P62068: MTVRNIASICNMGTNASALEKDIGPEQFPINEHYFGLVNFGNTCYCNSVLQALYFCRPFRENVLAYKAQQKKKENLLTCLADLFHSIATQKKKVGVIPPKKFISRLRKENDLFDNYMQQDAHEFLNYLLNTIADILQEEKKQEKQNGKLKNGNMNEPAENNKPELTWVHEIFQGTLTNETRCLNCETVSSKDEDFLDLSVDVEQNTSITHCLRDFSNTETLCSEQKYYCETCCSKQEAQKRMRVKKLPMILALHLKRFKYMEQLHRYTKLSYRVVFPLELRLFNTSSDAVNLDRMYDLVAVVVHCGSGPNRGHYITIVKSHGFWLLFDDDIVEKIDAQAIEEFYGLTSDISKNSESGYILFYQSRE
UniProt Q8TAF3: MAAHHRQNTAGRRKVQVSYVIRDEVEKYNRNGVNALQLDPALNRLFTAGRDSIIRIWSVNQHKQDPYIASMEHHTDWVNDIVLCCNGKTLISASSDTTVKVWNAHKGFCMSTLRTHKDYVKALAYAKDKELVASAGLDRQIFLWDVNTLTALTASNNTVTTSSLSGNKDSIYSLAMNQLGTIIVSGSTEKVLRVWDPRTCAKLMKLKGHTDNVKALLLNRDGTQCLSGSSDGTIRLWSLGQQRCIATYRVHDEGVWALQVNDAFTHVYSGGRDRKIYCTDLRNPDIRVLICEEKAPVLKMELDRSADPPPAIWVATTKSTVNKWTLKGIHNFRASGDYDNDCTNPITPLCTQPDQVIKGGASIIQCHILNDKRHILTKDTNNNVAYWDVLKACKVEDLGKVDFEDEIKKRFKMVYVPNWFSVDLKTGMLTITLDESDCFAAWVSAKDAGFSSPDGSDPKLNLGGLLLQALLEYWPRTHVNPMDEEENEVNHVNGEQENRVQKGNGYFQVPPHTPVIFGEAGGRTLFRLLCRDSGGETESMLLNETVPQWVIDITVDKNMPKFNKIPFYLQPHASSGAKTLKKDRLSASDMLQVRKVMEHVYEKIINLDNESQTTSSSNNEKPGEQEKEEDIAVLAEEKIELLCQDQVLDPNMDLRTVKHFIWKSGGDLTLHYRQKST

B1: Xpress tagged WDR20 (protein, UniProt Q8TBZ3 1-569)
chain: MATEGGGKEMNEIKTQFTTREGLYKLLPHSEYSRPNRVPFNSQGSNPVRVSFVNLNDQSGNGDRLCFNVGRELYFYIYKGVRKAADLSKPIDKRIYKGTQPTCHDFNHLTATAESVSLLVGFSAGQVQLIDPIKKETSKLFNEERLIDKSRVTCVKWVPGSESLFLVAHSSGNMYLYNVEHTCGTTAPHYQLLKQGESFAVHTCKSKSTRNPLLKWTVGEGALNEFAFSPDGKFLACVSQDGFLRVFNFDSVELHGTMKSYFGGLLCVCWSPDGKYIVTGGEDDLVTVWSFVDCRVIARGHGHKSWVSVVAFDPYTTSVEEGDPMEFSGSDEDFQDLLHFGRDRANSTQSRLSKRNSTDSRPVSVTYRFGSVGQDTQLCLWDLTEDILFPHQPLSRARTHTNVMNATSPPAGSNGNSVTTPGNSVPPPLPRSNSLPHSAVSNAGSKSSVMDGAIASGVSKFATLSLHDRKERHHEKDHKRNHSMGHISSKSSDKLNLVTKTKTDPAKTLGTPLCPRMEDVPLLEPLICKKIAHERLTVLIFLEDCIVTACQEGFICTWGRPGKVVSFNP

What was measured:
[1] = target: Flag-tagged EBNA3B 1–938 (Epstein-Barr virus) (UniProt P03203); assay: co-IP
[2] = target: Flag-tagged EBNA3B 394–938 (Epstein-Barr virus) (UniProt P03203); assay: co-IP

Molecule | binding [1] | binding [2]
Xpress tagged USP46 (from UniProt P62068 1-366) (enzyme) | binds | 
Xpress tagged WDR48 aa1-634 (WDR48ΔSLD2) (from UniProt Q8TAF3 1-634) (domain or fragment) |  | no binding
Xpress tagged full length WDR48 (from UniProt Q8TAF3 1-677) | binds | binds
B1 | binds | 
